Values marked as one replicate rest on one cluster of the flow cell; about a third of the high ones do not repeat.
Test system: ATP
Assay: switch fluorescence ratio, 500 uM ATP over buffer (Cy3 cluster intensity, sum of 5 cycles each) (fold (ratio)); higher = stronger signal-on switching upon ATP binding; sequences stand for … in TCGTCGGCAGCGTCAGATGTGTATAAGAGACAGTTTTTTTTTTTTTTTTTTTTTTTTT…TC
Settings: aptamer strand: ATP DNA aptamer (quencher-CACCTGGGGGAGTATTGCGGAGGAAGG + anchor), 100 nM annealed; ATP concentration: 500 uM; one replicate
How it was run: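 Values give the fluorescence ratio for each switch-domain sequence, averaged from per-cluster ratios of summed target-cycle to summed buffer-cycle Cy3 intensity. The Cy3-labelled switching-strand clusters sat on a modified Illumina MiSeq flow-cell, were annealed to 100 nM quencher-labelled ATP aptamer, and were imaged in selection buffer, then after 15 min with 500 uM ATP at 22 °C. Five cycles ran with NaOH stripping and re-annealing between them, and clusters outside 100-1000 RFU were excluded.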
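Further: ATP exposure 15 min at 22 °C before imaging.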

TACAAGGGA
switch fluorescence ratio: 0.971

AAGACCGGGT
switch fluorescence ratio: 1.05

AAAGAAGTCC
switch fluorescence ratio: 1.04

GGTTTGGGAC
switch fluorescence ratio: 1.02

TTCCTATTAC
switch fluorescence ratio: 1.17

TCTGCGGGCA
switch fluorescence ratio: 1.18

GGCGGAACGA
switch fluorescence ratio: 0.965

AGCCCCTATT
switch fluorescence ratio: 1.02

CCGCTAGGTA
switch fluorescence ratio: 1.04

ATATAATTTC
switch fluorescence ratio: 1.01

GTCACACTTT
switch fluorescence ratio: 0.966

GTTGTATCTG
switch fluorescence ratio: 0.989

CGTAATTTAA
switch fluorescence ratio: 1.01

TAGATAAGGA
switch fluorescence ratio: 0.997

GTCGGGGCCT
switch fluorescence ratio: 1.01

AAAAACCACC
switch fluorescence ratio: 1.21

GCGTGGTGT
switch fluorescence ratio: 1.05

ATAAGCGACG
switch fluorescence ratio: 1.05

ATGCTATGGG
switch fluorescence ratio: 0.986

GATGGCATTT
switch fluorescence ratio: 0.969

TAGTCCCGAG
switch fluorescence ratio: 0.993

CGGGGAGAAG
switch fluorescence ratio: 0.969

TTCGAACCTG
switch fluorescence ratio: 1.04

CCTGCTGTGA
switch fluorescence ratio: 1.19

ACATCCCT
switch fluorescence ratio: 1.11

CATAGAGTCG
switch fluorescence ratio: 1.04

TGGCGATCAA
switch fluorescence ratio: 1.01

ATCCCGTTGG
switch fluorescence ratio: 1.03

AGGTAGCAT
switch fluorescence ratio: 1.05

ACTAGTTGAG
switch fluorescence ratio: 1.01

CGGCGCCGTG
switch fluorescence ratio: 1.09

AGGAATATTC
switch fluorescence ratio: 1.04

TTCGCCTGGT
switch fluorescence ratio: 1.04

CCTCGCGGCA
switch fluorescence ratio: 2.33

TGATAGGG
switch fluorescence ratio: 0.989

TTGCTGGT
switch fluorescence ratio: 1.03

AGCGTGGGCC
switch fluorescence ratio: 0.967

TGTGCCTATG
switch fluorescence ratio: 0.973

TATTGTGCGA
switch fluorescence ratio: 1.03

GTTGTCAGGC
switch fluorescence ratio: 1

GGAGTTCGTA
switch fluorescence ratio: 0.94

AAAATGCTTG
switch fluorescence ratio: 0.966

TACCGTCGGA
switch fluorescence ratio: 1.01

TTCAGTGTGT
switch fluorescence ratio: 0.978

GGGGTATGCG
switch fluorescence ratio: 1.06

TATAAGGAGA
switch fluorescence ratio: 0.929

CCCATGGGCC
switch fluorescence ratio: 0.951

AGCAGGCTG
switch fluorescence ratio: 0.974

TGCTTAGAGC
switch fluorescence ratio: 0.983

CATATGGTTA
switch fluorescence ratio: 0.967

GCTTTTGGTT
switch fluorescence ratio: 0.971

TTATGTCTGT
switch fluorescence ratio: 1.01

GCCCGCGTT
switch fluorescence ratio: 1.17

ACCAGGAAAT
switch fluorescence ratio: 1.03

GCGCAAAGTG
switch fluorescence ratio: 1.03

GTAGGATCAG
switch fluorescence ratio: 0.967

AAGGAAAGCA
switch fluorescence ratio: 0.996

CTCTAATAAT
switch fluorescence ratio: 1

GCGGGCTGAT
switch fluorescence ratio: 1.02

ATAGAGCGTT
switch fluorescence ratio: 1.02

CCGTAACATC
switch fluorescence ratio: 3.34

ACGGGCTTAT
switch fluorescence ratio: 0.988

GTGAGTAGCA
switch fluorescence ratio: 0.997

CTTAATTATT
switch fluorescence ratio: 1.01

AAGGATGATC
switch fluorescence ratio: 0.997

CTAGGTTTTT
switch fluorescence ratio: 1.01

GGTGCTGGGC
switch fluorescence ratio: 1.02

TATTAGCTTC
switch fluorescence ratio: 1.05

AAGATACGGG
switch fluorescence ratio: 1

TGGCGCGCGG
switch fluorescence ratio: 1.02

TCGCGAATTA
switch fluorescence ratio: 1

GCCTGAAGAT
switch fluorescence ratio: 0.973

ACGGGATAGG
switch fluorescence ratio: 0.995

GCGCTGACCA
switch fluorescence ratio: 1.06

TGACACCAG
switch fluorescence ratio: 0.975

CTGGATAGGT
switch fluorescence ratio: 0.999

GACTTCTTTG
switch fluorescence ratio: 1.03

ATTCCTCTGA
switch fluorescence ratio: 1.25

CGAATAGGAC
switch fluorescence ratio: 1.03

TACAGTAAAC
switch fluorescence ratio: 1.08

CCGATGGGCA
switch fluorescence ratio: 1.08

ATCTGATCAG
switch fluorescence ratio: 1.05

TACTTGGGCT
switch fluorescence ratio: 1.02

GAGGGCAAGG
switch fluorescence ratio: 1.04

GAACTTACAC
switch fluorescence ratio: 1.24

TCACTAGCTC
switch fluorescence ratio: 1.01

AGTCGGAGGG
switch fluorescence ratio: 1.02

TCAACCCAGA
switch fluorescence ratio: 1.05

TTGAATGACC
switch fluorescence ratio: 1.04

TGATTCCAAC
switch fluorescence ratio: 0.971

TTCTTATTT
switch fluorescence ratio: 0.968

ATTGGGCTTA
switch fluorescence ratio: 1.05

TGATTCACTC
switch fluorescence ratio: 0.981

AATGAGTTTC
switch fluorescence ratio: 1

CACCCATGGG
switch fluorescence ratio: 3.35

TTGCGGTCA
switch fluorescence ratio: 1.02

AGCGTGGATG
switch fluorescence ratio: 1.04

GGCAAACGCG
switch fluorescence ratio: 0.979

GACACCTTGC
switch fluorescence ratio: 2.64

ATCACTACT
switch fluorescence ratio: 1.05

GATAACTACA
switch fluorescence ratio: 1.02

TCAGCGGGTA
switch fluorescence ratio: 1.03

TACACATGTT
switch fluorescence ratio: 1.02

TCTGGGGTCT
switch fluorescence ratio: 0.963

GGCGGCGCCC
switch fluorescence ratio: 1.02

TTGGTTAGG
switch fluorescence ratio: 0.926

AACGTGCATA
switch fluorescence ratio: 1.05

ATCGGACTG
switch fluorescence ratio: 1.06

CGCGTCATTT
switch fluorescence ratio: 0.984

GAGACCCTCT
switch fluorescence ratio: 1.04

ACTGTATGGA
switch fluorescence ratio: 1.16

TTAGAACCTG
switch fluorescence ratio: 1.05

TCAAGGTGCC
switch fluorescence ratio: 1.06

TCCATCAGTC
switch fluorescence ratio: 1.01

GCGACCAGTG
switch fluorescence ratio: 1.19

TTAGTCTAGG
switch fluorescence ratio: 1.05

AATCGCAGGC
switch fluorescence ratio: 1.91

AAGCGCTCAG
switch fluorescence ratio: 1.03

TATATCGTCC
switch fluorescence ratio: 1.04

GCTTGGATGC
switch fluorescence ratio: 0.986

ACGGTGAAGG
switch fluorescence ratio: 0.984

TTGAAATTCG
switch fluorescence ratio: 0.988

GAACAAATTG
switch fluorescence ratio: 1

AATCTTTGT
switch fluorescence ratio: 0.972

TGCGCTGTCT
switch fluorescence ratio: 1.02

CAAGTGTAAC
switch fluorescence ratio: 1.01

ACCGTAAATA
switch fluorescence ratio: 1.44

ACTGCAGGGT
switch fluorescence ratio: 0.962

GCACCGACGT
switch fluorescence ratio: 1.57

GGACGCGCGT
switch fluorescence ratio: 1.04

ATGTCCAGAG
switch fluorescence ratio: 1.01

CGGCCAAAGT
switch fluorescence ratio: 0.994

ATTATACTAT
switch fluorescence ratio: 1

CATCCAATCT
switch fluorescence ratio: 1.1

TTGCACGGCG
switch fluorescence ratio: 1.02

ATTCATAACT
switch fluorescence ratio: 1

TTGTTTGAAG
switch fluorescence ratio: 1

ACTGCGGCCG
switch fluorescence ratio: 1.02

TATCCCAGCA
switch fluorescence ratio: 1.11

GAAGGTCAAG
switch fluorescence ratio: 0.962

TATCTAGATA
switch fluorescence ratio: 0.98

TAAGTTTGCG
switch fluorescence ratio: 0.962

CTGGTTTGTA
switch fluorescence ratio: 0.954

CTTTGTGAAC
switch fluorescence ratio: 1

CACATTAAAT
switch fluorescence ratio: 0.983

GTTACCTCGA
switch fluorescence ratio: 1.03

AACAGAGCTT
switch fluorescence ratio: 1.02

TACAGTCTTC
switch fluorescence ratio: 1.05

GTGTACATTT
switch fluorescence ratio: 0.982

TAGTCTTAG
switch fluorescence ratio: 0.999

CGGGGTTGAT
switch fluorescence ratio: 0.945

AAGTAAGTTA
switch fluorescence ratio: 0.983

TTTTCTTAT
switch fluorescence ratio: 1.03

ACAATTCGG
switch fluorescence ratio: 0.99

CGCAGTTGTT
switch fluorescence ratio: 1.02

ACGGATCCCA
switch fluorescence ratio: 1

AGGATCAGGC
switch fluorescence ratio: 0.913

Reference: the supplement of paper PMC10126150
